Experimental data from PubChem BioAssay AID652104 (National Center for Advancing Translational Sciences (NCATS), 2013).
The whole screen tested about 410,000 compounds, of which about 7,200 (1.8%) were called active. Inconclusive means that the source gave no clear call. Such entries were picked first, then a sample of the others. Calls come from the whole dose curve; as a rule, active = well fitted activation curve with a large enough effect; inconclusive = small, poorly fitted or top-dose-only effect, or another doubt; inactive = no such curve, though single readings can be large or run the other way. Potencies beside an inconclusive call are fits to weak or partial responses and may not hold up.

Experiment: qHTS of TDP-43 Inhibitors; note: nearly all actives have a fitted effect of over 50% in size; for growth rescue (activation): % of control where 0% means no effect
Details: TDP-43 expressing yeast growth rescue, BacTiter-Glo, 24 h; growth rescue (activation): at 46.1 µM (top of the series) unless noted
Outline: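 Growth rescue of TDP-43-toxic yeast measured as ATP luminescence (BacTiter-Glo). Cells grown to mid-log in raffinose, induced in galactose at OD600=0.02, exposed to compound 24 hr at 30 deg C.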
Potency is the fitted concentration of half-maximal effect; tags give direction and shape of the fitted curve.

Potency, active:
Fc1ccc(-c2nc3c4ccccc4ccn3c2Cc2cccc(Cl)c2)cc1 14.1 µM
O=C(COc1ccc(-c2nnco2)cc1)NC1CCCc2ccccc21 (configuration not stated) 20 µM
Nc1cc2c(cc1C(=O)c1cccc(Br)c1)OCCO2 14.1 µM
N#Cc1cnc(SCCc2ccccc2)nc1N 12.6 µM
Cn1c(N)c(C(C[N+](=O)[O-])c2ccccc2Cl)c(=O)n(C)c1=O (configuration not stated) 14.1 µM
COc1ccc(C(C)(NC(C)=O)c2nc(-c3ccc(F)c(Cl)c3)cs2)cc1 (configuration not stated) 35.5 µM
Cc1nc(COc2ccccc2Cl)sc1-c1ccnc(N)n1 11.2 µM

Potency, inconclusive:
CC1(C(=O)NS(=O)(=O)c2ccccc2)CCN1C(=O)C1(c2ccc(Cl)cc2)CC1 (configuration not stated) 35.5 µM [activator, single point]
COc1ccc2[nH]c(=O)c(CN(C(=O)c3cccc(Cl)c3)c3cccc(C)c3)cc2c1 1.26 µM [activator, full curve, poor fit]
CC(/C=N/NC(=O)CSc1nnc(SCc2ccccc2)s1)=C\c1ccco1 35.5 µM [activator, single point]
Cc1cccc2sc(NNC(=O)c3ccc(S(=O)(=O)N4CCc5ccccc5C4)cc3)nc12 3.55 µM [activator, single point]
O=C(c1ccc(Cl)cc1)N1N=C(c2ccccn2)CC1(O)C(F)(F)F (configuration not stated) 12.6 µM [activator, single point]
COc1cccc(COC(=O)c2ccc3c(=O)n4c(nc3c2)CCC4)c1OC 15.8 µM [activator, single point]
CCc1ccc(CN(C)C(=O)CCc2nnc(-c3ccc(-c4ccccc4)cc3)o2)nc1 12.6 µM [activator, partial curve]
COC(=O)C(C)Sc1nnc(Cc2cc(=O)[nH]c(=O)[nH]2)n1-c1cc(C)ccc1C (configuration not stated) 6.31 µM [activator, partial curve]
CC(C)c1cc(-c2nc(-c3ccc(Br)cc3)no2)n[nH]1 10 µM [activator, partial curve]
CCN1C(=O)N(CC)c2cccc3cccc1c23 11.2 µM [activator, single point]
Cc1ccc(-c2csc3ncnc(NCCC(=O)O)c23)cc1C 3.55 µM [activator, single point]
COc1cccc(C(NC(C)=O)c2nc(-c3cnc4ccccc4c3)cs2)c1 (configuration not stated) 0.562 µM [activator, full curve, poor fit]
COc1ccc2c(c1)c1c(c(=O)n(-c3cccc(C)c3)c(=O)n1CC(=O)NCC1CCCO1)n2C (configuration not stated) 0.501 µM [activator, full curve, poor fit]
Cc1cc(S(=O)(=O)N2CCN(C(=O)c3ccco3)CC2)ccc1F 8.91 µM [activator, partial curve]
CN(Cc1ccccc1)C(=O)c1cc(-c2cccc(Cl)c2)on1 20 µM [activator, single point]
Cc1nnc(SCC(=O)NC2CC2)n1CC1CCCO1 (configuration not stated) 20 µM [activator, partial curve]
CC1=CC(=NOC(=O)c2cccc([N+](=O)[O-])c2)C=C(C)C1=O 4.47 µM [activator, partial curve]
Cc1ccc2c(c1)-c1cc(C)nn1C(c1ccc3c(c1)OCO3)N2 (configuration not stated) 22.4 µM [activator, single point]
COc1ccc(Cl)cc1NC(=O)c1cnc2sccn2c1=O 5.01 µM [activator, full curve, poor fit]
O=C(c1cccs1)N1CC=C(c2ccccc2)CC1 2.51 µM [activator, partial curve]
COc1ccc(C2=NN(c3ccc(C(=O)O)cc3)C(c3ccc(OC)c(OC)c3)C2)cc1 (configuration not stated) 25.1 µM [activator, single point]
COc1ccccc1C=NN=C(NN=Cc1ccccc1OC)NN=Cc1ccccc1OC 20 µM [activator, single point]
CC(C)OCCCNC(=S)NNC(=O)c1ccc(Cl)c(Cl)c1 3.16 µM [activator, partial curve]
O=C(C1COc2ccccc2O1)N1CCN(c2ccc(F)cc2)CC1 (configuration not stated) 31.6 µM [activator, single point]
Cc1cc(-c2ccc(Cl)cc2)c2cnn(C(C)C)c2n1 12.6 µM [activator, partial curve]
COc1ccccc1/C=C/C(=O)OCC(=O)NC(=O)NC1CCCC1 31.6 µM [activator, single point]
COC(=O)c1ccn(-c2nc(-c3ccco3)cc(C(F)(F)F)n2)n1 28.2 µM [activator, single point]
COc1ccc(C(=O)Nc2ccc(C)cc2C(=O)c2ccccc2)cc1 14.1 µM [activator, single point]
CCOc1ccc(N/C(SCc2cccc([N+](=O)[O-])c2)=C(/C#N)C(N)=O)cc1 35.5 µM [activator, single point]
Cc1cccc(CNC(=O)c2ccc(NC(=O)N3CC(C)Sc4ccccc43)cc2)c1 (configuration not stated) 35.5 µM [activator, partial curve, poor fit]
COc1cccc(C(=O)OCC(=O)NCCC2=CCCCC2)c1 15.8 µM [activator, single point]
Cc1ccc(CCNC(=O)C2CC(c3ccc(C(F)(F)F)cc3)=NO2)cc1 (configuration not stated) 7.08 µM [activator, full curve, poor fit]
COc1cccc(NC(=O)c2ccc3nc(C)sc3c2)c1 22.4 µM [activator, single point]
COC(=O)N1[C@H](C)C=C[C@]1(Cc1ccccc1)C(=O)NCCCNc1ncc(C(F)(F)F)cc1Cl 22.4 µM [activator, single point]
COc1ccc(CNC(=O)c2csc(Cc3ccccc3)n2)cc1 25.1 µM [activator, single point]
Cn1c(N)c(C(=O)COC(=O)C2CCCN2C(=O)c2cccs2)c(=O)n(C)c1=O (configuration not stated) 0.355 µM [activator, partial curve, poor fit]
Cn1nccc1C(=O)N1CCN(c2ccccc2F)CC1 17.8 µM [activator, partial curve]
COc1cc(C(O)c2nc(-c3cccc4cccnc34)cs2)ccc1F (configuration not stated) 1 µM [activator, full curve]
CCCc1c(C)nn(-c2ncccc2[N+](=O)[O-])c1C 12.6 µM [activator, single point]
Cc1onc(-c2c(F)cccc2Cl)c1C(=O)N1CCN(c2ncc(Br)cn2)CC1 14.1 µM [activator, single point]
CCc1ccc(C2C(C#N)=C(N)C(C#N)(C#N)C3=CCC(C(C)(C)C)CC32)cc1 (configuration not stated) 31.6 µM [activator, single point]
Cc1nn(Cc2ccc(Cl)cc2)c(=O)n1N(C)c1ncc(C(F)(F)F)cc1Cl 17.8 µM [activator, partial curve, poor fit]
Cc1c(OCC(=O)N[C@@H](Cc2c[nH]c3ccccc23)C(=O)O)ccc2c1oc(=O)c1ccccc12 6.31 µM [activator, full curve, poor fit]
Oc1c(C(c2ccc(F)cc2)N2CCOCC2)sc2nc(-c3ccco3)nn12 (configuration not stated) 7.94 µM [activator, full curve, poor fit]
N#CCc1nn(Cc2ccc(F)cc2)c(=O)c2ccccc12 14.1 µM [activator, partial curve]
O=C(NCC(c1ccco1)N1CCc2ccccc21)c1cccc(F)c1 (configuration not stated) 25.1 µM [activator, single point]

Growth rescue (activation), inconclusive:
CC1(Cc2ccccc2Cl)C(=O)Nc2c(Cl)cccc21 (configuration not stated) 236% [activator]

Growth rescue (activation), inactive:
COC(=O)NC1c2ccccc2Oc2ccccc21 16.6%
CC1=C(CC(=O)c2ccccc2)C(=O)c2ccccc2C1=O 26.1%
COc1ccccc1NC(=O)CSc1oc(-c2ccccc2)nc1S(=O)(=O)c1ccccc1 6.14%
CC(C)n1c2ccccc2c2nc3ccccc3nc21 1.32%
CCOC(=O)C1CCN(C(=O)COC(=O)COc2ccc(Cl)cc2)CC1 -21%
COc1cccc(CNC(=O)CCCCCn2c(=O)[nH]c3cc(OC)c(OC)cc3c2=O)c1 -2.08%
COc1ccc(S(=O)(=O)N(CC(=O)Nc2cccc(C(F)(F)F)c2)c2ccc(C)cc2)cc1 27.4%
O=C(/C=C\c1ccc2c(c1)OCO2)NC1CC(=O)N(c2cccc(F)c2)C1 (configuration not stated) 18.3%
Cc1ccc(S(=O)(=O)c2c(N)n(-c3ccccc3)c3nc4ccccc4nc23)cc1 -1.52%
CCOc1ccc(CCNC(=O)c2cc3c(s2)-c2ccccc2OC3)cc1OCC 4.86%
C[C@H](CO)N1C[C@H](C)[C@@H](CN(C)S(=O)(=O)c2cccc(F)c2)Oc2ncc(Br)cc2C1=O 2.56%
CCC(=O)NC(=S)Nc1cccc(NC(=O)c2ccccc2C)c1 3%
COc1ccc(CCNc2nccn(-c3ccc(C)c(C)c3)c2=O)cc1OC 0%
